Whole data set: some 16,000 sequences, median “Z-score” near -0.37, cut for the highest 2% near 3.1. Some of the results follow.
tested on: RBM10 RRM1-ZnF-RRM2 (GST-tagged construct); experiment: RNAcompete 7-mer binding Z-score; higher = stronger binding preference
In short: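 In 1 ml Hepes pH 7.8 buffer with KCl, NaCl, glycerol, DTT, BSA and glutathione Sepharose beads, GST-tagged RBM10 constructs (20 pmol) were incubated for 30 min at 4°C with 1.5 nmol of a designed pool of 241 399 RNAs up to 41 nt. Four 2-min washes at 4°C followed, and bound RNA was detected by microarray hybridisation. Heptamer motif enrichment was expressed as a one-sided Z-score across probes containing each motif.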

Sequence	RNAcompete 7-mer binding Z-score
UGACGAC	-0.235
CCAGUCU	-0.741
UUGGGAG	2.51
GGUUCAC	-0.0488
AUGUAAA	0.0386
ACCCCCG	-0.544
UUAGUAA	-0.355
GCGGAGG	3.25
UGGGUUC	1.07
GUCCUUC	-0.814
CGAGAGU	0.141
GCAGGAC	1.14
CUGGGAC	0.905
CAGUUUG	-0.384
CACAGAG	0.195
GUUCCAG	-0.227
GUGCUAC	-0.235
AAUAAUU	-0.482
UCAAGGA	1.02
CCUAUUC	-0.989
CCCCGUC	-0.624
CUGGCUU	-0.592
GAGAAAC	0.246
CUAGUCA	-0.555
AUCACCG	-0.592

Sequence	RNAcompete 7-mer binding Z-score
UUCCUCA	-0.843
GCCAGCA	-0.205
CGUGCGA	-0.209
AGGUUCA	0.192
CAGCACA	-0.442
GGGGUCA	3
AUAAAGU	-0.0598
CGUGUUU	-0.544
CAGACCC	-0.657
AAUGGUG	2.35
GAGAAUC	0.075
GUAUGGU	2.04
UACUUAG	-0.526
CGCGAGA	-0.289
AGAUGCA	-0.0925
AUAAUCG	-0.449
AGAUCCU	-0.989
GAUCAUA	-0.198
GCGCAUC	-0.504
CUACGCA	-0.602
CGGUAUC	0.0131
UUCUUGA	-0.879
GGAGGGG	4.18
UGGUCUC	-0.402
AUCCGUU	-0.672

Sequence	RNAcompete 7-mer binding Z-score
CCGUUCG	-0.759
CUACGUC	-0.559
UAUAAAC	-0.322
ACGAUCU	-0.836
CGAUAUU	-0.573
UACUGGG	1.1
UACUUGG	-0.162
UCUAAGG	-0.078
CGAGGAA	1.59
CAAUUGG	1.07
GUUGUUG	0.104
CCCCGAC	-0.435
CUAAGGG	1.35
GAGUCAA	0.261
AGGUGCA	1.57
ACCGUUC	-0.916
UACGGGC	0.971
UGAGGCG	1.68
AUAACAU	-0.253
CGUGGGA	2.39
GAUGGAA	3.04
UGCGUCC	-0.708
CAGUGUC	-0.479
AUAUGCC	-0.679
UGGAUCU	-0.187

Sequence	RNAcompete 7-mer binding Z-score
UCUGCAA	-0.81
GGGUAUG	3.69
AGACAUU	-0.548
AUCCUCU	-0.679
CAGUCAA	-0.34
ACAGUGA	0.501
UGGUUGA	1.31
CGCAAAU	-0.504
GGUGACU	1
CGGUGUG	1.42
UCCUUCG	-0.89
AACUUAC	-0.741
UGUCUCU	-0.799
UAAAAUG	-0.00512
GAAAGAA	0.873
GCUUUGC	-0.781
ACUAGGU	0.308
CUUGGAU	-0.439
UAGGGUG	4.51
CAGGACA	1.07
AGGCAGC	0.0313
AUGCCCC	-0.65
GCCAUCG	-0.646
GAGAUUU	-0.315
GUGGAGG	4.09

Sequence	RNAcompete 7-mer binding Z-score
AGCAUGA	-0.369
UCUACUC	-0.679
GAAGCCA	-0.118
ACUCCGC	-0.734
AGUAUCU	-0.683
UGAUCUC	-0.69
UGAUCUG	-0.486
GCCCAUU	-0.908
UAACUGC	-0.544
GGCUUCG	0.00216
CCGGCGA	0.0313
CCUGCAU	-0.795
CGGGGGU	3.06
AUGUAUU	-0.42
UAUUUCC	-0.912
CUGGAAC	-0.0962
CCGGACG	-0.0525
GAUUCAA	-0.0962
GACCGUC	-0.956
CGCAGGC	-0.151
GUGAAGC	0.428
UCCCCCU	-0.566
GGAAUAG	2.37
CGCACGC	-0.573
UCCGUUG	-0.388

Sequence	RNAcompete 7-mer binding Z-score
GAGGAUC	0.632
GAAUCUA	-0.391
CGUAAAC	-0.209
CUUAGAA	-0.504
GUAGUCU	-0.256
CUUGGGA	0.945
AAGCGUU	-0.249
CAUUAAG	-0.125
AGACACC	-0.956
UAGCCCU	-0.908
UAGCAUG	0.0714
CCGAUCC	-0.777
GCGAAGA	0.519
GCGUCCU	-0.697
GACCAAC	-0.293
AGCUGGU	0.763
AACGGGU	3.25
AUGCAAA	-0.0889
AAACAUA	-0.18
ACAAGUU	-0.351
AACAUUG	-0.184
GAUGCCA	-0.581
CCGAUCG	-0.511
ACGAAAC	-0.267
CCCCCGC	-0.464

Sequence	RNAcompete 7-mer binding Z-score
ACAGCAU	-0.453
AAACCUC	-0.766
GAUCAUU	-0.632
GCUUUCG	-0.748
GGUAGCG	1.64
CUGGUCG	-0.0415
AACAGAA	0.126
ACACUUU	-0.989
UCGAUGU	-0.5
CUGAGGA	0.323
UCGCAUU	-0.683
CAUCGCC	-0.876
CUAGCGC	-0.741
ACUGUCC	-0.843
GAUGAUA	0.494
GCGCGCU	-0.333
ACGGCAG	0.982
AAGGACU	0.913
UAUGGCC	-0.253
CACGAGG	0.731
GGGAACG	3.86
ACCUCCA	-0.825
UGGACCG	0.501
GCAUAGU	0.155
ACGCCGA	-0.795

Sequence	RNAcompete 7-mer binding Z-score
AACUGUC	-0.704
UUCACGG	-0.318
GCCUAAC	-0.672
GAAUGCA	0.213
GAAGUGA	1.64
CCCAUCG	-0.774
GAAUCGC	-0.388
UCUGCGU	-0.602
GGAACCA	1.12
CACUAGU	-0.395
UCACGCU	-0.734
GGACCAC	0.472
AGGGUAU	3.41
UCGUCUC	-0.57
GCCCCGU	-0.541
CCAAACC	-0.672
AGAUCUA	-0.646
GUACUUG	-0.307
CCACGAG	-0.296
GGGCCCU	-0.439
CGGAAGG	2.53
CUCUAGG	-0.282
CGCCGGA	-0.384
UCGAGUU	-0.482
CCGGAGU	0.159

Sequence	RNAcompete 7-mer binding Z-score
GGACUAU	-0.0306
ACUCCCC	-0.759
GCUUCCG	-0.799
CAUCAAG	-0.471
ACACCUA	-0.814
GGUCCUU	-0.315
UGCCAAC	-0.551
GCGUGAG	1.01
CUACGCC	-0.876
GGAUAAU	1.21
AAGACUC	-0.581
GCAGAGU	0.654
UGGUUCC	-0.289
CCCACGA	-0.701
GACUCAU	-0.85
GGGCUCG	0.811
UUUGAUG	-0.358
UUGACGA	-0.227
UCUUUAC	-0.865
GGUACCC	0.104
UCGAUAC	-0.46
AGCCUAA	-0.704
UAGUCCG	-0.508
AUUGAGU	0.323
CGCAAAC	-0.588

Sequence	RNAcompete 7-mer binding Z-score
CCGCAGU	-0.533
AGUGAAA	0.738
CUCCAAC	-0.61
UAUAUCU	-0.588
CCGGUUU	-0.53
GAGCAGU	0.614
AAUCGUA	-0.205
UACCAGC	-0.373
UAGUUAC	-0.198
GAGGAGA	1.89
GAGUAGG	3.6
AGUUUUG	-0.0707
GCUAGCG	-0.0233
CGGAUUC	-0.195
UGGUGAG	2.71
AGCUAGA	-0.224
ACGUCAA	-0.522
AACAUAA	-0.362
CCGGUCA	-0.449
UCUCGGC	-0.708
CAGCCGU	-0.701
CGGGGUU	2.23
GCCGAGU	-0.635
UUUAGGA	0.348
GCCAAGG	0.964

Sequence	RNAcompete 7-mer binding Z-score
UGCCUUG	-0.868
GUGAUCG	0.439
CGUAGCG	0.232
AACGCGA	-0.111
UGCGGGC	1.07
CGAAUGA	-0.282
GUUAUUC	-0.581
GUAAAAC	0.304
ACCUAUA	-0.785
UGAGGUG	2.45
GCAGGAA	2.07
GGCGCGG	1.92
AUCAAUG	0.206
UUGCUAC	-0.719
GCGUUUC	-0.457
CCAGAAU	-0.406
AGACCCA	-1.11
UUAGUCG	-0.351
GUCCUGU	-0.417
CUCAUGC	-0.948
CAACCCU	-0.908
CUACUUU	-0.901
UGCUCCC	-0.821
CCCGUAA	-0.592
ACGCUGU	-0.657

Sequence	RNAcompete 7-mer binding Z-score
AGUCAAC	-0.0707
UAUACCC	-0.672
UGGGACG	2.27
CUUUUCU	-0.814
CCGCCCG	-0.679
CCGGUUG	0.224
CAAAAUC	-0.537
AGCCCUG	-0.846
GACUUGU	-0.821
GGGCUCA	0.556
UAAUCGA	-0.311
GGUGCGG	2.6
GCCUAUC	-0.828
CGGCGAU	0.348
GUGGGAU	3.57
GAUCUUU	-0.77
ACGAGGU	1.36
AGAACCU	-1.06
AAAUGGG	4.04
AGACUUG	-0.635
AGUGUGC	0.359
AGGUAUC	0.0641
UCGCUGC	-0.719
ACCUAGU	-0.577
UGGAGAG	2.12

Sequence	RNAcompete 7-mer binding Z-score
ACACCUG	-0.635
CAAUACC	-0.65
GGCUCCG	-0.231
CACACUG	-0.446
CGUACCG	-0.38
GGUGACA	2.07
CCCACUA	-0.85
AGGUAAC	0.942
CAUGUAU	-0.522
CCGGAAC	-0.362
UAAUUCU	-0.806
ACAACCU	-0.956
AUGUAUG	0.221
GCAUUUC	-0.799
AGAAGUG	1.25
AGAUCUC	-0.952
GAAGAAA	0.796
CUUUUAU	-0.938
ACCGGGC	0.304
AAGUAUC	-0.613
UGCGAGG	2.01
UAAAUAG	0.024
GGGUCUG	0.993
UACUAGA	-0.42
CCCAGGC	-0.555

Sequence	RNAcompete 7-mer binding Z-score
CACCGCC	-0.701
UGAAUUG	0.268
CUCCCAA	-0.759
UAGGACU	0.202
UUUCGUG	-0.398
UAUUAAC	-0.613
CCGACGC	-0.46
ACAACUG	-0.449
ACCCCUU	-0.795
CGGACAU	0.17
AAAUCGC	-0.781
GUCUAGG	0.352
CGAGCCC	-0.697
GGUAGCC	0.552
GAACCUA	-0.675
GCGUGCC	-0.267
CAACCGU	-0.577
CCCCACC	-0.431
UUGGACA	0.417
AUGGUGA	2.09
CCUUGCC	-0.89
GGUUCAG	0.752
GAGUUGA	0.763
UUAGUUU	-0.242
CGUGCGC	-0.18

Sequence	RNAcompete 7-mer binding Z-score
CACAUGG	0.793
UAGGCUA	0.392
AAACUUA	-0.686
GUCCCGU	-0.358
UACAAGA	-0.216
AAUAGGU	1.27
AUCUCCG	-0.806
UGUCACU	-0.843
GCGAUUC	-0.621
CUACGCG	-0.439
CUCAUAU	-0.832
GCUCAAU	-0.475
AUGCUCC	-0.799
AGGGGAU	3.41
AGAGCGG	1.46
GAUAGCG	0.938
GAAUCUG	-0.632

Source: the supplement of paper PMC5499739
